Measurements as given in paper PMC4336329 (PLoS ONE, 2015).
In all, about 310,000 compounds went through this assay and about 14,000 (4.5%) showed an effect of 50% or more. Effects have a minus sign here. Some of the results follow.

Each compound was assayed against human ether-à-go-go-related gene (hERG) potassium channel (human, UniProt Q12809) (assay: primary screen, population patch clamp on CHO cells stably expressing hERG).
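Further: peak tail current of the secondary pulse compared with the same well before compound.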

Chain of human ether-à-go-go-related gene (hERG) potassium channel (Q12809 whole entry, looked up): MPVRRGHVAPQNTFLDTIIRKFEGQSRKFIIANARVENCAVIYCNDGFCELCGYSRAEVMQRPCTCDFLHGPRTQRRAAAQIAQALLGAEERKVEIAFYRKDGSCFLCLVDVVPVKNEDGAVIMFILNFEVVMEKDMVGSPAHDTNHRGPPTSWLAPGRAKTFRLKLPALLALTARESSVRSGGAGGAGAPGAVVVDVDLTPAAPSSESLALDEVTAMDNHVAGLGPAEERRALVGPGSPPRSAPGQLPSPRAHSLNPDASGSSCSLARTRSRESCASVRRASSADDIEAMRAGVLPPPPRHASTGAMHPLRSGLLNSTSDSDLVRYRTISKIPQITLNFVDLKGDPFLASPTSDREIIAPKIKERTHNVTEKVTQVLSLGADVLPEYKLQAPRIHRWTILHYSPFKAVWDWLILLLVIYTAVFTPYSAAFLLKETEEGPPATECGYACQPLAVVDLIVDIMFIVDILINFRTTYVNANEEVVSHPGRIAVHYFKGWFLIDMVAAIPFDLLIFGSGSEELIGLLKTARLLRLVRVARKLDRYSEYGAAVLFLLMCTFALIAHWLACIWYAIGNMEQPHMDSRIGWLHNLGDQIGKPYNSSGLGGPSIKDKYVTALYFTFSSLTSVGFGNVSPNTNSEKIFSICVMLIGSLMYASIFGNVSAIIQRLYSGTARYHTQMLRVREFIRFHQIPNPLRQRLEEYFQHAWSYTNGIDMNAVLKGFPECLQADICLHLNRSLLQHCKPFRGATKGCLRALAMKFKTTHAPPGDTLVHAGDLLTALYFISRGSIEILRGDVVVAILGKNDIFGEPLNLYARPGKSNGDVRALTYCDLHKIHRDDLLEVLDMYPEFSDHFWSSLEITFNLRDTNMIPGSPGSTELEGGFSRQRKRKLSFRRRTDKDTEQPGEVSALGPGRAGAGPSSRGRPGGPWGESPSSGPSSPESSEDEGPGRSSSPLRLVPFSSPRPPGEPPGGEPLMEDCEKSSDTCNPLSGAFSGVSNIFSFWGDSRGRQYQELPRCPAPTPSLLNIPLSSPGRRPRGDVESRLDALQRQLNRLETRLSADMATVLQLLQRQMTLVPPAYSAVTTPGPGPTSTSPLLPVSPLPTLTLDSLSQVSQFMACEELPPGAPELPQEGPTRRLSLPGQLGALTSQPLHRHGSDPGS

Row | Compound | hERG current change (%, negative = inhibition) at 10uM [%]
1 | CC1Cc2ccccc2N1CC(=O)Nc1ccc(S(N)(=O)=O)cc1 (centres unmarked) | -6.21
2 | CC(NC(=O)c1ccccc1SCC(=O)N1CCCC1)c1ccc(F)cc1 (centres unmarked) | 2.6
3 | Clc1ccccc1COc1ccccc1-c1nnco1 | 1.3
4 | Cc1cccc(CSCc2ccc(C(=O)NCC3CCCO3)o2)c1 (centres unmarked) | -21.3
5 | O=C(O)c1cnn(-c2nc(-c3ccc(F)cc3)cs2)c1C(F)(F)F | 1.22
6 | Cc1ccc(C(=O)Nc2ccccc2C(=O)NC(C(=O)O)C(C)C)cc1 (centres unmarked) | 0.929
7 | C=CCn1c(SCC(=O)NC2CCCC2)nnc1-c1ccccn1 | 12.3
8 | O=C1CN2CCC1C/C2=C\c1ccnc2c(Cl)cccc12 (centres unmarked) | -0.086
9 | Nc1cc(=O)[nH]c(SCC(=O)Nc2cc(S(=O)(=O)N3CCCCC3)ccc2Cl)n1 | 19.6
10 | Cc1ccc(OCC(=O)Nc2c[nH]c(=O)[nH]c2=O)cc1C | 18.9
11 | Cc1cccc2c3c([nH]c12)CCNC3.Cl | 8.46
12 | COc1ccccc1-n1cnnc1SCC(=O)N1CCOCC1 | 4.58
13 | Cn1cccc1/C=N/NC(=O)CSc1nc2ccccc2[nH]1 | -8.65
14 | CCOc1ccccc1NC(=S)N1CCCCCC1 | 14.2
15 | COc1ccc(CC(=O)N/N=C(\C)CC(=O)Nc2ccc3c(c2)OCCO3)cc1OC | -10.1
16 | Cc1ccccc1-c1nc2cc(Cl)ccc2c(=O)o1 | 13.3
17 | CC(C(=O)NC1CCCCC1)N(Cc1ccc(F)cc1)C(=O)c1snc(C(N)=O)c1N (centres unmarked) | -28.8
18 | COc1ccc(NC(=S)Nc2ccc(S(N)(=O)=O)cc2)c(OC)c1 | 3.01
19 | O=C(/C=C/c1ccc(S(=O)(=O)NCc2ccco2)cc1)NCc1cccc(Cl)c1 | -13.6
20 | CN(C)c1nc(OCCOC(=O)Nc2ccc(Cl)cc2Cl)nc(N(C)C)n1 | -5.59
21 | Cc1nn(-c2ccccc2)c(NC(=O)C(C)C)c(-c2ccccc2)c1=O | 14.2
22 | CC1(C)Cc2nc3sc(C(=O)NCCCO)c(N)c3cc2CO1 | 12.1

Row | Compound | hERG current change (%, negative = inhibition) at 10uM [%]
23 | COc1ccc(CCn2c(N)c(C(=O)NCc3ccco3)c3nc4ccccc4nc32)cc1OC | 14.8
24 | Cc1cc(C)nc(NC(=O)c2cc(-c3ccc4c(c3)OCO4)nc3ccccc23)c1 | 12.6
25 | N/N=C1\CCCc2nonc21 | 37
26 | CC(C)C(NC(=O)c1ccccc1F)C(=O)NCc1ccccc1 (centres unmarked) | 6.97
27 | O=C(Nc1ccc(Cl)cc1)C1=Cc2ccccc2OC1 | -9.34
28 | CN(C)CCC(c1ccccc1)c1ccccn1.O=C(O)/C=C/C(=O)O (centres unmarked) | 10.5
29 | Clc1cccc(CN2CCN(Cc3nc(CCc4ccccc4)no3)CC2)c1 | -31.4
30 | Cc1ccc(OCC(=O)Nc2sc3c(c2C#N)CC(C)(C)NC3(C)C)cc1 | 1.97
31 | Cc1cnc(=O)[nH]c1SCc1cccc(C(F)(F)F)c1 | 2.37
32 | Cc1ccn2c(CNCCCn3cccn3)c(C(=O)N3CCCCCC3)nc2c1 | -23.4
33 | CCOc1ccc(S(=O)(=O)N2CCN(c3ccccc3F)CC2)c2cccnc12 | -11.2
34 | O=C1C(NS(=O)(=O)c2ccccc2)=C(N2CCN(c3ccc(F)cc3)CC2)C(=O)c2ccccc21 | 13.1
35 | Cc1nc(N)sc1-c1csc(Nc2ccc(S(N)(=O)=O)cc2)n1 | 15
36 | CCOc1ccc(S(=O)(=O)NCc2cccs2)cc1 | -20.2
37 | Cn1c(=O)c2c(nc(SCC(=O)N3CCOCC3)n2C)n(C)c1=O | 17.8
38 | CC(C)(C)C1CCC(C(=O)OCC(=O)c2ccc[nH]2)CC1 (centres unmarked) | -2.48
39 | CC(C)C1Oc2ccccc2N(CC(=O)NCCCN2C(C)CCCC2C)C1=O (centres unmarked) | -9.7
40 | CCOC(=O)C1C(=O)NC(SCC(=O)Nc2nccs2)=C(C#N)C1c1ccccc1OCC (centres unmarked) | 13.7
41 | CN(C)C=O.Cn1nnnc1SCC(=O)NNC(=O)c1ccc(F)cc1 | -9.81
42 | CC(NC(=O)NC1CCCCC1)C(c1cccs1)N1CCN(C)CC1 (centres unmarked) | -8.03
43 | Cc1[nH]n(-c2ccc(Cl)cc2)c(=O)c1C=NC12CN3CN(CN(C3)C1)C2 | -26.5
44 | Cc1c(-c2ccccc2)n[nH]c1C(=O)N=Nc1c(O)[nH]c2ccccc12 | 1.39
